{"source": "PubChem BioAssay AID504832", "about": "(National Center for Advancing Translational Sciences (NCATS), 2011)", "note": "The campaign covered roughly 310,000 compounds. About 18,000 (5.8%) were called active. Inconclusive results, whose numbers are uncertain, are shown with a selection of clear calls. Calls come from the whole dose curve; as a rule, active = well fitted inhibition curve with a large enough effect; inconclusive = small, poorly fitted or top-dose-only effect, or another doubt; inactive = no such curve, though single readings can be large or run the other way. No potency is given beside an inconclusive call; the fits are too rough. Potency is the fitted concentration of half-maximal effect; tags give direction and shape of the fitted curve.", "data": [{"experiment": "Primary qHTS for delayed death inhibitors of the malarial parasite plastid, 48 hour incubation", "settings": "P. falciparum luciferase growth in erythrocytes; series mostly up to 28.7 µM", "how_it_was_run": "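First compound was added to culture medium, then infected red cells at 0.1% parasitemia and 2% hematocrit (final). After incubation at 37 C under 5% CO2, luciferase detection reagent was dispensed and light output recorded.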", "values": [{"smiles": "Cc1ccc2oc(NC(=O)N3CCOCC3)cc(=O)c2c1", "Potency": "inconclusive [inhibitor, single point]"}, {"smiles": "CCC(=O)Nc1nnc(S(=O)(=O)N(CC)c2ccc(Cl)cc2)s1", "Potency": "inactive"}, {"smiles": "Cc1cccc2nc(Cn3c(=O)n(CCC(=O)NCc4ccco4)c(=O)c4sccc43)cc(=O)n12", "Potency": "inactive"}, {"smiles": "COC(=O)CCCC1=CC2=CC(=O)C(C)(OC(=O)c3cccs3)C(=O)C2=CN1C1CCCCC1", "note": "(stereo not drawn)", "Potency": "inconclusive [inhibitor, single point]"}, {"smiles": "CN(C(=O)CO/N=C/c1ccc(OC(F)F)cc1)C1CCS(=O)(=O)C1", "note": "(stereo not drawn)", "Potency": "inactive"}, {"smiles": "CCn1c(CN2C(=O)CSc3ccccc32)n[nH]c1=S", "Potency": "inactive"}, {"smiles": "O=C(O)c1ccc(Nc2cc(Cl)c3nonc3c2[N+](=O)[O-])cc1", "Potency": "inactive"}, {"smiles": "Cn1c(=O)[nH]c(=O)c2c1nc(SCC(=O)Nc1ccccc1)n2Cc1ccccc1", "Potency": "active: 11.7 µM"}, {"smiles": "COc1ccc(CNC(=O)c2ccc3c(=O)n4c(nc3c2)CCCCC4)cc1OC", "Potency": "inconclusive [inhibitor, single point]"}, {"smiles": "CCOC(=O)N1CCN(C(=O)c2cnc(Nc3ccccc3OC)c3ccccc23)CC1", "Potency": "inconclusive [inhibitor, single point]"}, {"smiles": "CCOC(=O)c1ccc(NC(=O)CCS(=O)(=O)c2ccc(Br)s2)cc1", "Potency": "inconclusive [inhibitor, partial curve, poor fit]"}, {"smiles": "CC(=O)Nc1ccc(S(=O)(=O)NNC(=O)COc2ccc(C)cc2)cc1", "Potency": "inactive"}, {"smiles": "Cc1cc(NC(=O)CCC(=O)N(c2ccccc2)C(C(=O)NC2CCCC2)c2cccs2)no1", "note": "(stereo not drawn)", "Potency": "inconclusive [inhibitor, single point]"}, {"smiles": "CCOC(=O)C1(CCOc2ccccc2)CCN(C2Cc3ccccc3C2)CC1", "Potency": "inconclusive [inhibitor, single point]"}, {"smiles": "COc1ccc(/C=C(\\NC(=O)c2ccco2)C(=O)NC(Cc2ccccc2)C(=O)O)cc1", "note": "(stereo not drawn)", "Potency": "inactive"}, {"smiles": "O=C1c2ccccc2CC1Sc1nnc(-c2ccccn2)o1", "note": "(stereo not drawn)", "Potency": "inconclusive [inhibitor, single point]"}, {"smiles": "Cc1ccc(S(=O)(=O)Nc2ccccc2C(=O)N2CCN(C)CC2)cc1", "Potency": "inactive"}, {"smiles": "Cc1ccc(-c2cc(C(=O)NCCCn3ccnc3)c3ccccc3n2)s1", "Potency": "inconclusive [inhibitor, single point]"}, {"smiles": "O=C(c1ccc2oc(CCc3ccccc3)nc2c1)N1CC[C@H](O)C1", "Potency": "inactive"}, {"smiles": "COc1cc(C(=O)Nc2cccc3cccnc23)cc(OC)c1OC", "Potency": "inconclusive [inhibitor, single point]"}, {"smiles": "CCOC(=O)CSc1nc2sc3c(c2c(=O)n1-c1ccc(OCC)cc1)CCN(C)C3", "Potency": "active: 13.1 µM"}, {"smiles": "CCN(Cc1ccccc1)C(=O)C1CCN(Cc2ccc(SC)cc2)CC1", "Potency": "inconclusive [inhibitor, partial curve, poor fit]"}, {"smiles": "COc1cc(OC)cc(C(=O)N2CCN(C(=O)COc3ccc4ccccc4c3)CC2)c1", "Potency": "inactive"}, {"smiles": "Cc1ccc(-c2nc(C#N)c(NCC3CCCO3)o2)cc1", "note": "(stereo not drawn)", "Potency": "inactive"}, {"smiles": "COc1ccc2cc(C(c3nnnn3Cc3ccccc3)N3CCCCCC3)c(=O)[nH]c2c1", "note": "(stereo not drawn)", "Potency": "inconclusive [inhibitor, single point]"}, {"smiles": "COCCOc1ccc(C(F)(F)F)cc1NC(=O)COC(=O)Cc1c[nH]c2ccccc12", "Potency": "inconclusive [inhibitor, single point]"}, {"smiles": "O=C(NN=C1CCCC1)c1ccccc1OCc1ccc(Cl)cc1", "Potency": "inactive"}, {"smiles": "Cc1ccc(Sc2nc(-c3ccccc3)nnc2C(F)(F)F)cc1", "Potency": "active: 13.1 µM"}, {"smiles": "Cc1nc(C(=O)NNC(=O)c2ccc(Cl)cc2)cs1", "Potency": "inconclusive [inhibitor, single point]"}, {"smiles": "O=C(/C(=C/O)N=Nc1ccccc1)c1cccs1", "Potency": "inconclusive [inhibitor, single point]"}, {"smiles": "NC(=O)CC(NC(=O)c1ccccc1)c1ccc(NCc2ccc(F)c(F)c2)c([N+](=O)[O-])c1", "note": "(stereo not drawn)", "Potency": "inconclusive [inhibitor, single point]"}, {"smiles": "O=C(NCC(c1ccco1)N1CCCC1)c1cn(-c2ccccc2)nc1-c1ccc(F)cc1", "note": "(stereo not drawn)", "Potency": "inconclusive [inhibitor, single point]"}, {"smiles": "CCC(c1nnnn1C1CCCCC1)N1CCN(C2CCCC2)CC1", "note": "(stereo not drawn)", "Potency": "inconclusive [inhibitor, full curve, poor fit]"}, {"smiles": "Cc1cc2cc(C(c3nnnn3CC3CCCO3)N3CCCc4ccccc43)c(=O)[nH]c2cc1C", "note": "(stereo not drawn)", "Potency": "inconclusive [inhibitor, single point]"}, {"smiles": "COc1cc(CSc2ncn[nH]2)c(OC)cc1CSc1ncn[nH]1", "Potency": "inconclusive [inhibitor, single point]"}, {"smiles": "Cc1ccc(-c2nc3ccccc3s2)cc1NC(=O)c1ccc2c(c1)OCO2", "Potency": "inconclusive [inhibitor, single point]"}, {"smiles": "CCC(C(=O)NC(C)(C)C)N(Cc1ccco1)C(=O)Cn1nnc(-c2ccc(F)cc2)n1", "note": "(stereo not drawn)", "Potency": "inconclusive [inhibitor, partial curve]"}, {"smiles": "COc1ccc(-c2nnn(CC(=O)N(Cc3ccccc3Cl)C(C(=O)NCC3CCCO3)c3ccco3)n2)cc1", "note": "(stereo not drawn)", "Potency": "inconclusive [inhibitor, partial curve]"}, {"smiles": "CCOC(=O)C1(CC2CC2)CCN(C(=O)c2cc(C3CC3)nc3ccccc23)CC1", "Potency": "inconclusive [inhibitor, partial curve, poor fit]"}, {"smiles": "CCOC(=O)CN/C=C(\\C#N)c1ccccc1", "Potency": "inactive"}, {"smiles": "CCOC(=O)C(NC(=O)c1ccc(Cl)cc1Cl)(Nc1ccc(C)cc1)C(F)(F)F", "note": "(stereo not drawn)", "Potency": "inconclusive [inhibitor, partial curve, poor fit]"}, {"smiles": "O=C(Nc1ccnc(-c2cccnc2)n1)c1ccc(Cl)cc1", "Potency": "inconclusive [inhibitor, single point]"}, {"smiles": "Cc1c([N+](=O)[O-])cc(C(=O)Nc2ccc3ncccc3c2)cc1[N+](=O)[O-]", "Potency": "inconclusive [inhibitor, single point]"}]}]}
